Reference: the supplement of paper PMC8728848
Some of the results follow.

Legend:
Assay in all cases: glycan array binding signal (z-score within array); higher = stronger binding
Details in all cases: glycan notation: IUPAC condensed, linker removed
[1] = target: GlcNAc(b1-3)Gal(b1-3)GalNAc
Outline: (§1)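 Glycan array data were curated from 3228 arrays in the Consortium for Functional Glycomics database and kept only where the protein sequence was available. Glycan names were converted to IUPAC-condensed notation, and columns mapping to the same glycan were averaged. The binding signal is a within-array Z-score, averaged across arrays of the same protein sequence at different concentrations or buffers and across linkers. Negative Z-scores can be read as non-binding.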

GlcNAc(b1-3)Gal(b1-4)Glc = target: GlcNAc(b1-3)Gal(b1-4)Glc
Outline: as §1

[2] = target: GlcNAc(b1-3)Gal(b1-4)GlcNAc
Outline: as §1

[3] = target: GlcNAc(b1-3)Gal(b1-4)GlcNAc(b1-2)Man(a1-3)[GlcNAc(b1-3)Gal(b1-4)GlcNAc(b1-2)Man(a1-6)]Man(b1-4)GlcNAc(b1-4)GlcNAc
Outline: as §1

[4] = target: GlcNAc(b1-3)Gal(b1-4)GlcNAc(b1-2)Man(a1-3)[GlcNAc(b1-3)Gal(b1-4)GlcNAc(b1-2)Man(a1-6)]Man(b1-4)GlcNAc(b1-4)[Fuc(a1-6)]GlcNAc
Outline: as §1

[5] = target: GlcNAc(b1-3)Gal(b1-4)GlcNAc(b1-2)[GlcNAc(b1-3)Gal(b1-4)GlcNAc(b1-6)]Man(a1-6)[GlcNAc(b1-3)Gal(b1-4)GlcNAc(b1-2)Man(a1-3)]Man(b1-4)GlcNAc(b1-4)GlcNAc
Outline: as §1

[6] = target: GlcNAc(b1-3)Gal(b1-4)GlcNAc(b1-3)Gal(b1-4)GlcNAc
Outline: as §1

[7] = target: GlcNAc(b1-3)Gal(b1-4)GlcNAc(b1-3)Gal(b1-4)GlcNAc(b1-2)Man(a1-3)[GlcNAc(b1-3)Gal(b1-4)GlcNAc(b1-3)Gal(b1-4)GlcNAc(b1-2)Man(a1-6)]Man(b1-4)GlcNAc(b1-4)GlcNAc
Outline: as §1

[8] = target: GlcNAc(b1-3)Gal(b1-4)GlcNAc(b1-3)Gal(b1-4)GlcNAc(b1-2)Man(a1-3)[GlcNAc(b1-3)Gal(b1-4)GlcNAc(b1-3)Gal(b1-4)GlcNAc(b1-2)Man(a1-6)]Man(b1-4)GlcNAc(b1-4)[Fuc(a1-6)]GlcNAc
Outline: as §1

[9] = target: GlcNAc(b1-3)Gal(b1-4)GlcNAc(b1-3)Gal(b1-4)GlcNAc(b1-2)[GlcNAc(b1-3)Gal(b1-4)GlcNAc(b1-3)Gal(b1-4)GlcNAc(b1-6)]Man(a1-6)[GlcNAc(b1-3)Gal(b1-4)GlcNAc(b1-3)Gal(b1-4)GlcNAc(b1-2)Man(a1-3)]Man(b1-4)GlcNAc(b1-4)[Fuc(a1-6)]GlcNAc
Outline: as §1

[10] = target: GlcNAc(b1-3)Gal(b1-4)GlcNAc(b1-3)Gal(b1-4)GlcNAc(b1-3)Gal(b1-4)GlcNAc(b1-2)Man(a1-3)[GlcNAc(b1-3)Gal(b1-4)GlcNAc(b1-3)Gal(b1-4)GlcNAc(b1-3)Gal(b1-4)GlcNAc(b1-2)Man(a1-6)]Man(b1-4)GlcNAc(b1-4)GlcNAc
Outline: as §1

[11] = target: GlcNAc(b1-3)Gal(b1-4)GlcNAc(b1-3)Gal(b1-4)GlcNAc(b1-3)Gal(b1-4)GlcNAc(b1-2)Man(a1-3)[GlcNAc(b1-3)Gal(b1-4)GlcNAc(b1-3)Gal(b1-4)GlcNAc(b1-3)Gal(b1-4)GlcNAc(b1-2)Man(a1-6)]Man(b1-4)GlcNAc(b1-4)[Fuc(a1-6)]GlcNAc
Outline: as §1

[12] = target: GlcNAc(b1-3)Gal(b1-4)GlcNAc(b1-3)Gal(b1-4)GlcNAc(b1-3)Gal(b1-4)GlcNAc(b1-2)[GlcNAc(b1-3)Gal(b1-4)GlcNAc(b1-3)Gal(b1-4)GlcNAc(b1-3)Gal(b1-4)GlcNAc(b1-6)]Man(a1-6)[GlcNAc(b1-3)Gal(b1-4)GlcNAc(b1-3)Gal(b1-4)GlcNAc(b1-3)Gal(b1-4)GlcNAc(b1-2)Man(a1-3)]Man(b1-4)GlcNAc(b1-4)[Fuc(a1-6)]GlcNAc
Outline: as §1

[13] = target: GlcNAc(b1-3)Gal(b1-4)GlcNAc(b1-3)Gal(b1-4)GlcNAc(b1-3)Gal(b1-4)GlcNAc(b1-3)Gal(b1-4)GlcNAc(b1-2)Man(a1-3)[GlcNAc(b1-3)Gal(b1-4)GlcNAc(b1-3)Gal(b1-4)GlcNAc(b1-3)Gal(b1-4)GlcNAc(b1-3)Gal(b1-4)GlcNAc(b1-2)Man(a1-6)]Man(b1-4)GlcNAc(b1-4)GlcNAc
Outline: as §1

[14] = target: GlcNAc(b1-3)Gal(b1-4)GlcNAc(b1-3)Gal(b1-4)GlcNAc(b1-3)Gal(b1-4)GlcNAc(b1-3)Gal(b1-4)GlcNAc(b1-2)Man(a1-3)[GlcNAc(b1-3)Gal(b1-4)GlcNAc(b1-3)Gal(b1-4)GlcNAc(b1-3)Gal(b1-4)GlcNAc(b1-3)Gal(b1-4)GlcNAc(b1-2)Man(a1-6)]Man(b1-4)GlcNAc(b1-4)[Fuc(a1-6)]GlcNAc
Outline: as §1

[15] = target: GlcNAc(b1-3)Gal(b1-4)GlcNAc(b1-3)Gal(b1-4)GlcNAc(b1-3)Gal(b1-4)GlcNAc(b1-3)Gal(b1-4)GlcNAc(b1-2)[GlcNAc(b1-3)Gal(b1-4)GlcNAc(b1-3)Gal(b1-4)GlcNAc(b1-3)Gal(b1-4)GlcNAc(b1-3)Gal(b1-4)GlcNAc(b1-6)]Man(a1-6)[GlcNAc(b1-3)Gal(b1-4)GlcNAc(b1-3)Gal(b1-4)GlcNAc(b1-3)Gal(b1-4)GlcNAc(b1-3)Gal(b1-4)GlcNAc(b1-2)Man(a1-3)]Man(b1-4)GlcNAc(b1-4)[Fuc(a1-6)]GlcNAc
Outline: as §1

[16] = target: GlcNAc(b1-3)Gal(b1-4)GlcNAc(b1-3)Gal(b1-4)GlcNAc(b1-3)GalNAc
Outline: as §1

[17] = target: GlcNAc(b1-3)Gal(b1-4)GlcNAc(b1-3)GalNAc
Outline: as §1

[18] = target: GlcNAc(b1-3)Gal(b1-4)GlcNAc(b1-3)[GlcNAc(b1-3)Gal(b1-4)GlcNAc(b1-3)]GalNAc
Outline: as §1

[19] = target: GlcNAc(b1-3)Gal(b1-4)GlcNAc(b1-6)[Gal(b1-3)]GalNAc
Outline: as §1

[20] = target: GlcNAc(b1-3)Gal(b1-4)GlcNAc(b1-6)[GlcNAc(b1-3)Gal(b1-3)]GalNAc
Outline: as §1

[21] = target: GlcNAc(b1-3)Gal(b1-4)GlcNAc(b1-6)[GlcNAc(b1-3)]Gal(b1-4)GlcNAc
Outline: as §1

GlcNAc(b1-3)GalNAc = target: GlcNAc(b1-3)GalNAc
Outline: as §1

GlcNAc(b1-3)Man = target: GlcNAc(b1-3)Man
Outline: as §1

[22] = target: GlcNAc(b1-3)[GlcNAc(b1-4)][GlcNAc(b1-6)]GlcNAc
Outline: as §1

[23] = target: GlcNAc(b1-3)[GlcNAc(b1-6)]Gal(b1-4)GlcNAc
Outline: as §1

[24] = target: GlcNAc(b1-3)[GlcNAc(b1-6)]GalNAc
Outline: as §1

[25] = target: GlcNAc(b1-4)Gal(b1-4)GlcNAc
Outline: as §1

GlcNAc(b1-4)GlcNAc = target: GlcNAc(b1-4)GlcNAc
Outline: as §1

[26] = target: GlcNAc(b1-4)GlcNAc(b1-4)GlcNAc
Outline: as §1

[27] = target: GlcNAc(b1-4)GlcNAc(b1-4)GlcNAc(b1-4)GlcNAc(b1-4)GlcNAc
Outline: as §1

[28] = target: GlcNAc(b1-4)GlcNAc(b1-4)GlcNAc(b1-4)GlcNAc(b1-4)GlcNAc(b1-4)GlcNAc
Outline: as §1

[29] = target: GlcNAc(b1-4)[GlcNAc(b1-6)]GalNAc
Outline: as §1

[30] = target: GlcNAc(b1-6)Gal(b1-4)GlcNAc
Outline: as §1

GlcNAc(b1-6)GalNAc = target: GlcNAc(b1-6)GalNAc
Outline: as §1

[31] = target: GlcNAc6S(b1-3)Gal(b1-4)GlcNAc
Outline: as §1

Kdn(a2-3)Gal(b1-3)GalNAc = target: Kdn(a2-3)Gal(b1-3)GalNAc
Outline: as §1

Kdn(a2-3)Gal(b1-3)GlcNAc = target: Kdn(a2-3)Gal(b1-3)GlcNAc
Outline: as §1

Kdn(a2-3)Gal(b1-4)Glc = target: Kdn(a2-3)Gal(b1-4)Glc
Outline: as §1

Kdn(a2-3)Gal(b1-4)GlcNAc = target: Kdn(a2-3)Gal(b1-4)GlcNAc
Outline: as §1

[32] = target: Kdn(a2-3)Gal(b1-4)[Fuc(a1-3)]GlcNAc
Outline: as §1

Kdn(a2-6)Gal(b1-4)GlcNAc = target: Kdn(a2-6)Gal(b1-4)GlcNAc
Outline: as §1

[33] = target: Man(a1-2)Man(a1-2)Man(a1-3)Man
Outline: as §1

[34] = target: Man(a1-2)Man(a1-2)Man(a1-6)[Man(a1-3)]Man
Outline: as §1

Man(a1-2)Man(a1-3)Man = target: Man(a1-2)Man(a1-3)Man
Outline: as §1

B1: CGL (Crenomytilus grayanus), H2FH31 (protein)
chain: MTTFLIKHKASGKFLHPYGGSSNPANNTKLVLHSDIHERMYFQFDVVDERWGYIKHVASGKIVHPYGGQANPPNETNMVLHQDRHDRALFAMDFFNDNIMHKGGKYIHPKGGSPNPPNNTETVIHGDKHAAMEFIFVSPKNKDKRVLVYA
glycan array binding signal (z-score) [1]: -0.273 | glycan array binding signal (z-score) (GlcNAc(b1-3)Gal(b1-4)Glc): -0.382 | glycan array binding signal (z-score) [2]: -0.347 | glycan array binding signal (z-score) [3]: -0.386 | glycan array binding signal (z-score) [4]: -0.375 | glycan array binding signal (z-score) [5]: -0.384 | glycan array binding signal (z-score) [6]: -0.341 | glycan array binding signal (z-score) [7]: -0.346 | glycan array binding signal (z-score) [8]: -0.248 | glycan array binding signal (z-score) [9]: -0.342 | glycan array binding signal (z-score) [10]: -0.27 | glycan array binding signal (z-score) [11]: -0.272 | glycan array binding signal (z-score) [12]: -0.239 | glycan array binding signal (z-score) [13]: -0.309 | glycan array binding signal (z-score) [14]: -0.279 | glycan array binding signal (z-score) [15]: -0.245 | glycan array binding signal (z-score) [16]: -0.392 | glycan array binding signal (z-score) [17]: -0.312 | glycan array binding signal (z-score) [18]: -0.302 | glycan array binding signal (z-score) [19]: -0.354 | glycan array binding signal (z-score) [20]: -0.315 | glycan array binding signal (z-score) [21]: -0.407 | glycan array binding signal (z-score) (GlcNAc(b1-3)GalNAc): -0.4 | glycan array binding signal (z-score) (GlcNAc(b1-3)Man): -0.334 | glycan array binding signal (z-score) [22]: -0.327 | glycan array binding signal (z-score) [23]: -0.309 | glycan array binding signal (z-score) [24]: -0.372 | glycan array binding signal (z-score) [25]: -0.283 | glycan array binding signal (z-score) (GlcNAc(b1-4)GlcNAc): -0.34 | glycan array binding signal (z-score) [26]: -0.375 | glycan array binding signal (z-score) [27]: -0.255 | glycan array binding signal (z-score) [28]: -0.393 | glycan array binding signal (z-score) [29]: -0.363 | glycan array binding signal (z-score) [30]: -0.359 | glycan array binding signal (z-score) (GlcNAc(b1-6)GalNAc): -0.357 | glycan array binding signal (z-score) [31]: -0.086 | glycan array binding signal (z-score) (Kdn(a2-3)Gal(b1-3)GalNAc): -0.175 | glycan array binding signal (z-score) (Kdn(a2-3)Gal(b1-3)GlcNAc): -0.357 | glycan array binding signal (z-score) (Kdn(a2-3)Gal(b1-4)Glc): -0.327 | glycan array binding signal (z-score) (Kdn(a2-3)Gal(b1-4)GlcNAc): -0.329 | glycan array binding signal (z-score) [32]: -0.349 | glycan array binding signal (z-score) (Kdn(a2-6)Gal(b1-4)GlcNAc): -0.318 | glycan array binding signal (z-score) [33]: -0.378 | glycan array binding signal (z-score) [34]: -0.356 | glycan array binding signal (z-score) (Man(a1-2)Man(a1-3)Man): -0.451
